According to publication PMC12136788:
The other results are listed elsewhere or left out.

B1: chr3:167401952:167401953:-_ENSG00000114209_ENST00000497056|hu_mus|motif|central (ssRNA)
RNA: GGGAGUUCUACAGUCCGACGAUCAAAAGAAUGAUAAUAGCAAAAGUGAUGCAAAAUCUUCAUUGUGAGAUUAUGAUUAAGCGGCAUUUUACAAAAAUAUGGUGUAAGAUGGCAAUAAUCCCAUUCAACAUCCUGGAUUAGGUCCAACAGAGGAUUGAGCAUCA
B2: chr16:94664741:94664742:+_ENSMUSG00000040785_ENSMUST00000117648|mus_hu|mus_mus_mus_hu_False|1_48 (ssRNA)
RNA: GGGAGUUCUACAGUCCGACGAUCUGGUACUGAUCUUGGUAGCUGAUAUUCAGGAGAAAGGCUGGCCAAGGGUGUAUAUAUGCUGGUGAACUGCGACAAACCUGGUAACACGUUUAUGUAUGCUGGCGGUGUCUGGGUGCCAAACAACAGAGGAUUGAGCAUCA
B3: chr3:41281661:41281662:+_ENSG00000168036_ENST00000349496|hu_mus|FALSE|FALSE (ssRNA)
RNA: GGGAGUUCUACAGUCCGACGAUCACCUGCUUAUUUUAAGCAUAUUAAAAAGGAAACUAAUCGGACCAUUUCUAUCUGUCUAUUUAUACAAAAGGCUACACAAUGUUACACGUCUCCAGAUUACAAUUAGCGUGAUUAUGAAUUCAACAGAGGAUUGAGCAUCA
B4: chr4:40210074:40210075:-_ENSMUSG00000036822_ENSMUST00000042575|mus_mus|motif|central (ssRNA)
RNA: GGGAGUUCUACAGUCCGACGAUCUAUAGGACACUUAGAAUCAGGAGACGCAUCAGCUGGUACUGUCUGCUGCAAUUUGCGGGUGCCAGCUUUAGGUGAAAAGUUGUCCAUUUUAAAUUCCUUAGCAGCUGAGGCCAUUAUCUCCAACAGAGGAUUGAGCAUCA
B5: chr11:100882373:100882374:+_ENSMUSG00000019302_ENSMUST00000044721|mus_mus|mus_mus_mus_hu_True|38_48 (ssRNA)
RNA: GGGAGUUCUACAGUCCGACGAUCUUCCUGGUUUGUGUUGAUUUCCUUCAGUUCAUUUUCAAUCUUCUCAAAAUUGGCCUCUAAGUCGAUCAUGUCCCGAGGGAAGGGAACCUCUGGGUUUUCACCGGUGUCCAUAAUCGGAAUCAACAGAGGAUUGAGCAUCA
B6: chr6:8205991:8205992:-_ENSMUSG00000012483_ENSMUST00000012627|mus_hu|FALSE|FALSE (ssRNA)
RNA: GGGAGUUCUACAGUCCGACGAUCUAAUAAAAUAGAAACUUAGACUCGGACAACUGCUUUAUUCUUGCAUCUAAUCUGACCAUAUAUUGGAGUAGCAAUUCUUUAUAAAAGGACUUCGGUGAGAACUGUCAAUAUAUCAGUUCCCAACAGAGGAUUGAGCAUCA

molecular target: T1, UNK ZnF1-3 (human, UniProt Q9C0B0 31-174); experiment: nsRBNS (natural sequence RNA bind-n-seq); RBNS binding buffer (assumed for nsRBNS): 25 mM Tris pH 7.5, 150 mM KCl, 3 mM MgCl2, 0.01% Triton X-100, 500 ug/ml BSA, 20 U/ml SUPERase-In, 4 C; UNK is unkempt and MSI1 is Musashi-1; names of the RNAs are library labels; protein concentration not given here; high values mean tight binding
T1 sequence: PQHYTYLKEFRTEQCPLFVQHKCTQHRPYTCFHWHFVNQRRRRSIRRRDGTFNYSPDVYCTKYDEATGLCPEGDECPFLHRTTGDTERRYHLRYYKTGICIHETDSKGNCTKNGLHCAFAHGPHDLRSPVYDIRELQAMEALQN

| Binder | binding signal |
| --- | --- |
| B1 | 0.71 enrichment R |
| B2 | 1.07 enrichment R |
| B3 | 0.788 enrichment R |
| B4 | 0.772 enrichment R |
| B5 | 0.624 enrichment R |
| B6 | 1.37 enrichment R |
